Measured values: PubChem BioAssay AID411 (National Center for Advancing Translational Sciences (NCATS), 2006)
About 1,600 (2.2%) of roughly 72,000 compounds were called active. Inconclusive results, whose numbers are uncertain, are shown with a selection of clear calls. Calls follow the shape of the dose curve; as a rule, active = well fitted inhibition curve with a large enough effect; inconclusive = small, poorly fitted or top-dose-only effect; inactive = flat fitted curve, though single readings scatter. Potencies of inconclusive entries are left out as doubtful fits.
% is scaled to controls: 0 for no effect and ±100 for the full control effect; potency is read from the fitted curve at half-maximal effect; tags tell the direction and shape of the fitted curve.
Also: nearly all actives have a fitted effect of over 40% in size.

The compounds below were run against Luciferin 4-monooxygenase (Photinus pyralis) (UniProt P08659) (assay: qHTS Assay for Inhibitors of Firefly Luciferase). Conditions: purified firefly luciferase, luminescence, 8 min; series mostly up to 57.1 µM; activity change, negative = inhibition: at the top concentration.
Sequence of UniProt P08659 (P08659 whole entry, looked up): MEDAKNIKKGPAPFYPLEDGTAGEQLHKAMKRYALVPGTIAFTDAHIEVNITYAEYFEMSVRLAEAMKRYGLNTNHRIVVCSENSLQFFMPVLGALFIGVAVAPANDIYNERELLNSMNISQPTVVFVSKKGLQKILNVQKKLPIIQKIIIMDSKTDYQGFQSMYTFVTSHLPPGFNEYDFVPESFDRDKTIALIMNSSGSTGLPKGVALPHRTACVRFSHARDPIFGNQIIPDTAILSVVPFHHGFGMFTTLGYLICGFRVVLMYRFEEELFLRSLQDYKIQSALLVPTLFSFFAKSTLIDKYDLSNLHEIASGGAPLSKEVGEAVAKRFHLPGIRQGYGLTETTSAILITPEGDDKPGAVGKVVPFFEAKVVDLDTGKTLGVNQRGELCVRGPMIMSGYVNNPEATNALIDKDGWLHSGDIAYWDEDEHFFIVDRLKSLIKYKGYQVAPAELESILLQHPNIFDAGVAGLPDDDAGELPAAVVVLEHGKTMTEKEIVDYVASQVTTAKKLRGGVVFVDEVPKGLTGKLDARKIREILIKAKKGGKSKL
Procedure, shortened: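 qHTS concentration-response profiling: light output of P. pyralis luciferase with luciferin and 10 uM ATP, imidazole buffer pH 7.2. Read by luminescence after 8-min room-temperature incubation.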
With `CN(C)c1nc(OCCOC(=O)COc2ccc(Cl)cc2Cl)nc(N(C)C)n1` the Potency was inconclusive [inhibitor, full curve]. For `COc1ccc2ccccc2c1C1CC(=O)N2CN(C)CSC2=C1C#N` (stereo not drawn), the Potency was inconclusive [inhibitor, partial curve]. In the case of `COc1ccc(CCNC(=O)Cn2nnc(-c3ccc(N4CCOCC4)cc3)n2)cc1OC`, the Potency is reported as inconclusive [inhibitor, full curve]. In the case of `O=C(c1cc(-c2cccs2)on1)N1CCCCC1`, the Potency is reported as active: 15.8 µM. For `CCSc1nnc(-c2ccc(Cl)cc2Cl)o1`, the Potency was inconclusive [inhibitor, partial curve]. For `CCC(=O)N[C@@H]1CCc2cccc(OC)c2C1`, the Potency was active: 25.1 µM. In the case of `O=C(c1ccco1)N1CCC2(CC1)CCN(c1ccccn1)CC2`, the activity change, negative = inhibition is reported as inactive: -1.11% [at 11.4 µM]. `O=C(NC1CCCC1)c1cc(-c2cccs2)on1` was tested, and the Potency was inconclusive [inhibitor, partial curve]. With `COc1ccc2oc(-c3ccc(O)cc3)cc(=O)c2c1` the Potency was inconclusive [inhibitor, single point]. With `Cc1ccc(C(=O)Nc2sc3c(c2C(=O)O)CCCCC3)o1` the Potency was active: 20 µM. `CCc1ccc(NC(=O)c2cc(-c3ccco3)on2)cc1` was tested, and the Potency was inconclusive [inhibitor, partial curve]. With `Cc1ccc2nc(-c3cccc(NC(=O)c4ccc5c(c4)OCCO5)c3)oc2c1` the Potency was inconclusive [inhibitor, partial curve]. With `O=C(c1cc2c(s1)CCCCC2)N1CCN(c2ncccn2)CC1` the Potency was inconclusive [inhibitor, single point]. For `COc1cc(C(=O)NCCC2=CCCCC2)cc(OC)c1OC`, the “activity change, negative = inhibition” value was inactive: 1.28%. `CC(C)N1CC(O)=C(c2nc3ccccc3[nH]2)C1=N` was tested, and the Potency was inconclusive [inhibitor, single point]. With `CCc1nnc2sc(-c3ccc(NC(=O)c4ccco4)cc3)nn12` the Potency was inconclusive [inhibitor, full curve]. For `Cc1c(Cl)cccc1NC(=O)c1cc(-c2ccc(O)cc2)on1`, the “activity change, negative = inhibition” value was inactive: -4.1%. For `Fc1cc(F)c2nc(N3CCCCC3)sc2c1`, the Potency was inconclusive [inhibitor, partial curve]. In the case of `O=c1c(O)c(-c2cc(O)c(O)c(O)c2)oc2cc(O)cc(O)c12`, the Potency is reported as inconclusive [inhibitor, single point]. For `C/C(N)=C(/C#N)C(=O)CSc1nnc(Nc2c(C)cccc2C)s1`, the “activity change, negative = inhibition” value was inactive: -0.0004%. For `CCOC(=O)C1CCN(Cc2cn[nH]c2-c2ccccc2)CC1`, the Potency was inconclusive [inhibitor, full curve]. `CC(C)COC(=O)CCn1[nH]c(=O)c2ccccc2c1=O` was tested, and the Potency was inconclusive [inhibitor, full curve]. `COc1ccc2nc3c(cc2c1)c(NC(=O)c1cccs1)nn3CC(C)C` was tested, and the Potency was active: 12.6 µM. `CCCCCCCCCCCCC/C=C\[C@@H](O)[C@H](CO)NC(C)=O` was tested, and the Potency was inconclusive [inhibitor, single point]. For `CC1Cc2ccccc2N1C(=O)CSc1nnc(-c2ccc(S(=O)(=O)N3CCCCC3)cc2)o1` (stereo not drawn), the Potency was inconclusive [inhibitor, full curve]. In the case of `O=C(Nc1ccc(-c2noc(COc3ccccc3Cl)n2)cc1)c1ccco1`, the Potency is reported as inconclusive [inhibitor, single point]. With `O=C(c1ccc(N2CCOCC2)cc1)c1cccs1` the Potency was active: 10 µM. With `Cc1c(C(=O)OCCN2CCCCC2)oc2ccccc12` the Potency was inconclusive [inhibitor, single point]. With `COc1ccccc1Nc1cc(C(=O)NCCCN2CCOCC2)c2ccccc2n1` the “activity change, negative = inhibition” value was inactive: -16.7%. With `CCOC(=O)c1cnn2c(C)cc(-c3ccc(F)cc3)nc12` the Potency was inconclusive [inhibitor, single point]. `O=C(Nc1ccc2nc[nH]c2c1)c1ccco1` was tested, and the Potency was inconclusive [inhibitor, single point]. `O=c1sc(N2CCN(c3ccccc3F)CC2)nc2ccsc12` was tested, and the Potency was inconclusive [inhibitor, partial curve]. `CN(C)CCCNc1c2c(c(C#N)c3nc4ccccc4n13)CCC2` was tested, and the “activity change, negative = inhibition” value was inactive: -1.09%. With `CC1CN(C(=O)c2cn3ccccc3n2)CC(C)O1` (stereo not drawn) the Potency was inconclusive [inhibitor, single point]. With `CC(C)c1ccc(NC(=O)NC2CCCCC2)cc1` the Potency was inconclusive [inhibitor, single point]. `Clc1ccc2nc(N3CCCCC3)sc2c1` was tested, and the Potency was inconclusive [inhibitor, partial curve]. `CN1Cc2cc(C(=O)c3cc(Cl)cc(CSc4ncccn4)c3O)cnc2NC1=O` was tested, and the “activity change, negative = inhibition” value was inactive: -4.38%. `CCC(=O)Nc1cc2nn(-c3ccccc3)nc2cc1Cl` was tested, and the Potency was inconclusive [inhibitor, full curve]. In the case of `CC(=O)Cc1nsc(NC(=O)c2ccc(-c3ccccc3Cl)o2)n1`, the Potency is reported as inconclusive [inhibitor, partial curve]. `O=C(COC(=O)c1ccccc1F)c1ccc(-n2nncc2-c2ccco2)cc1` was tested, and the “activity change, negative = inhibition” value was inactive: -6.53%. `CCCc1nc(SCC(=O)Nc2cc(C)on2)c2ccccc2n1` was tested, and the Potency was inconclusive [inhibitor, full curve]. `O=C(C1CCN(S(=O)(=O)c2ccc(Br)s2)CC1)N1CCc2ccccc21` was tested, and the “activity change, negative = inhibition” value was inactive: 1.92%. `O=C(Nc1cccc2cccnc12)c1cccc(N2C(=O)CCC2=O)c1` was tested, and the Potency was inconclusive [inhibitor, single point]. With `COc1ccccc1N1CCN(C(=O)c2cn(-c3ccccc3)nc2-c2cccnc2)CC1` the Potency was inconclusive [inhibitor, single point]. For `CSCCNC(=O)c1ccc(C(C)(C)C)cc1`, the Potency was active: 12.6 µM. `Cc1occc1C(=O)Nc1sc2c(c1C(N)=O)CCCCC2` was tested, and the Potency was active: 12.6 µM. `CC(C)(C)c1cc(Br)ccc1OCC(=O)Nc1ncn[nH]1` was tested, and the “activity change, negative = inhibition” value was inactive: 0.442%. In the case of `O=C(CSc1nnc(CNC(=O)c2cccs2)o1)c1ccc(Cl)cc1`, the “activity change, negative = inhibition” value is reported as inactive: 0.153%. For `Cn1nnc2cc(C(=O)NCCC3=CCCCC3)ccc21`, the Potency was inconclusive [inhibitor, single point]. `O=C(NCc1ccco1)c1cc2ccc(O)cc2oc1=O` was tested, and the Potency was inconclusive [inhibitor, single point]. For `CC(C)Sc1nnc(Nc2ccccc2)s1`, the Potency was inconclusive [inhibitor, single point]. For `CCCCN(C)c1nc(-c2ccco2)c2c(c1C#N)CC(C)(C)OC2`, the “activity change, negative = inhibition” value was inactive: -11%. In the case of `O=C(Nn1cnnc1)c1cc2c(s1)CCCCC2`, the Potency is reported as inconclusive [inhibitor, single point]. For `O=C(CCCOc1ccccc1)N1CCN(c2ccccn2)CC1`, the Potency was inconclusive [inhibitor, single point]. With `COc1ccc(Nc2nc(C)c3ccccc3n2)cc1` the Potency was inconclusive [inhibitor, partial curve]. `O=C(Nc1nnc(/N=C/c2ccco2)s1)c1ccc(F)cc1` was tested, and the Potency was inconclusive [inhibitor, single point]. With `COCCn1nnnc1SCC(=O)c1ccccc1` the “activity change, negative = inhibition” value was inactive: -1.52%. For `Cc1cccc(NC(=O)COc2ccc(Br)cc2C)n1`, the Potency was active: 10 µM. For `CCn1nc(NC(=O)c2ccncc2)c2cc3cc(C)ccc3nc21`, the Potency was inconclusive [inhibitor, partial curve]. In the case of `COc1cccc(-c2cn3nc4c(nc3n2)CCCC4)c1`, the Potency is reported as active: 3.16 µM. For `CCOC(=O)COc1ccc(S(=O)(=O)N2CCN(C(=O)OCC)CC2)cc1`, the “activity change, negative = inhibition” value was inactive: 1.75%. With `COc1ccccc1-c1nnc(Nc2nc3c(OC)cccc3s2)o1` the Potency was inconclusive [inhibitor, partial curve]. `COc1ccccc1OCC(=O)N(Cc1nc(-c2ccc(Cl)cc2)no1)C(C)C` was tested, and the “activity change, negative = inhibition” value was inactive: 1.17%. With `Clc1ccc2c(c1)C1OCCC1C(c1ccco1)N2` (stereo not drawn) the Potency was active: 15.8 µM. With `COc1cccc(NC(=O)c2nnn(CCc3ccccc3)c2N)c1` the Potency was inconclusive [inhibitor, partial curve]. With `Cc1cccc(-c2nc(C#N)c(NC3CCCCC3)o2)c1` the Potency was inconclusive [inhibitor, partial curve]. In the case of `COc1ccccc1C(=O)Nc1ccc2c(c1)nc1n2CCSC1`, the Potency is reported as active: 5.01 µM. In the case of `Cc1ccn2cc(C(=O)Nc3ccccc3N3CCOCC3)nc2c1`, the Potency is reported as inconclusive [inhibitor, partial curve]. For `Cc1ccc2c(c1)-c1cc(C)nn1C(c1ccc3c(c1)OCO3)N2` (stereo not drawn), the “activity change, negative = inhibition” value was inactive: -12.2%. In the case of `O=C(Nc1ccc(Cl)cn1)c1cccc(F)c1`, the Potency is reported as inconclusive [inhibitor, partial curve]. `NC(=O)COc1ccc(NC(=O)OCc2ccccc2)cc1` was tested, and the Potency was inconclusive [inhibitor, partial curve]. `C=C(C)COc1ccc2c(c1)CCC1C2CC[C@]2(C)C(=O)/C(=N/O)CC12` (stereo partly drawn) was tested, and the activity change, negative = inhibition was inactive: 3.35% [at 11.4 µM]. `COCc1[nH]nc2c1C(c1sccc1C)C(C#N)=C(N)O2` (stereo not drawn) was tested, and the “activity change, negative = inhibition” value was inactive: 2.81% [at 25.5 µM]. In the case of `O=c1c(-c2cccs2)nc2cnc(N3CCNCC3)nc2n1Cc1cccs1`, the activity change, negative = inhibition is reported as inactive: 0.237% [at 11.4 µM]. In the case of `Cc1cc([C@](C)(N)C(=O)O)ccc1P(=O)(O)O`, the Potency is reported as active: 25.1 µM. `FC(F)(F)c1cc(-c2ccco2)nc(-n2nnc3ccccc32)n1` was tested, and the “activity change, negative = inhibition” value was inactive: 0.275%. `COc1nc(C)ccc1-c1noc(-c2ccccn2)n1` was tested, and the Potency was inconclusive [inhibitor, full curve]. `Cc1nn(Cc2ccccc2)c(C)c1C(=O)Nc1ccc(N2CCOCC2)cc1` was tested, and the “activity change, negative = inhibition” value was inactive: -2.3%.
